According to article PMC12136788:
Some of the results follow.

T1: UNK ZnF1-3 (human, UniProt Q9C0B0 31-174)
T1 sequence: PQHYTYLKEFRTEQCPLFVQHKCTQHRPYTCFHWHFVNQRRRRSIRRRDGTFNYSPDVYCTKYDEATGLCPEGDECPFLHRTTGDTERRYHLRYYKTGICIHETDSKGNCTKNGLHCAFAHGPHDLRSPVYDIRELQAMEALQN

B1: chr4:95690885:95690886:+_ENSMUSG00000028572_ENSMUST00000156910|mus_mus|mus_mus_mus_hu_False|68_78 (ssRNA)
RNA: GGGAGUUCUACAGUCCGACGAUCUUUAGAAAAUGUUAAAUACCAUGCUAAAAUAUUGUAAUUUUAAAGUCUUAUUUUACCAGAAGUCACAGGCAAGCAGACACUACAAGAAUAUAUGAAAAUGAAACUCAACAAUAUAACUGUCAACAGAGGAUUGAGCAUCA
B2: 165947601_165947721_5469_CDS_ENSG00000153253_ENST00000283254|human|control|control (ssRNA)
RNA: GGGAGUUCUACAGUCCGACGAUCAUCAAUUCCAGCUUCCUUUUUAACAUAGGCAAAGUUGGACAUCCCAAAGAUGGCAUAGAUAAACAUGACCAGGAAGAGCAGGAGGCCGAUGUUAAACAACGCAGGAAGGGACAUCAUCAACAACAGAGGAUUGAGCAUCA
B3: 143576987_143577107_468_3pUTR_ENSMUSG00000039477_ENSMUST00000151477|mouse|control|control (ssRNA)
RNA: GGGAGUUCUACAGUCCGACGAUCCGCUCCGCGGCGUGCAUGGCGGCGGCCAGCGGGGCUUGCGCUCAACCACGGGCCCGCGGCCCGGGGCGCAUGAACCGCCCGCGGUGAGUCCCCUCCGGGCGGCUGAGCGGAGAUGAGGAACAACAGAGGAUUGAGCAUCA
B4: chr1:39494447:39494448:+_ENSG00000168653_ENST00000372967|hu_mus|hu_hu_hu_mus_False|68_98 (ssRNA)
RNA: GGGAGUUCUACAGUCCGACGAUCGCACCGAGCGGCGAUCUUGUAGGGCUGUUCUGCGCUUAGGAACGUCAACCAUCGGUCCAGGCUGAUGCCCAGCUUUUUCUGUAUGUCAAGGAAAGGCAUGGCUCUGCAGUGCCCUUGUCACAACAGAGGAUUGAGCAUCA
B5: chr16:94690093:94690094:+_ENSMUSG00000040785_ENSMUST00000117648|mus_hu|mus_mus_mus_hu_True|48_78 (ssRNA)
RNA: GGGAGUUCUACAGUCCGACGAUCGGGCUGGGAUGACGGACACACAGCCUCGAUUCCGGUAAAAAAAAGUCUUAGUCGAUACUAAUUUAAAAAGUAUAAUGAUUUUUGAAAAUCAGAUUACAUCUAUAAAAGAUGAAAAGCAAACAACAGAGGAUUGAGCAUCA
B6: chr1:184663225:184663226:-_ENSG00000116406_ENST00000318130|hu_mus|FALSE|FALSE (ssRNA)
RNA: GGGAGUUCUACAGUCCGACGAUCCACCAGAGUCUUUCCAGAGAGUCAUAGUUCAUCCUUCUCCAUCAUUUCAAAUGCUUCUAUGUCUUCAUUCCAGUCUGCUAAUAUGGAGUCUAUAGGCUGGGCCUUUGUACCCCAGCUGACCAACAGAGGAUUGAGCAUCA
B7: chr1:58468927:58468928:-_ENSMUSG00000026034_ENSMUST00000148330|mus_mus|mus_mus_mus_hu_False|1_38 (ssRNA)
RNA: GGGAGUUCUACAGUCCGACGAUCAAUUACUGAAAAAGAUGUUCAUUACCUUAGCUAUGUACUUAAUGAACCAAAUUACCCAAACAAAAUAAACAUGUUUACAAAUUAAUGUUAAGAAUUUACAAAGCUGUACAAAAAGACUGACAACAGAGGAUUGAGCAUCA
B8: chr18:56819859:56819860:+_ENSG00000166562_ENST00000588875|hu_mus|hu_hu_hu_mus_True|78_78 (ssRNA)
RNA: GGGAGUUCUACAGUCCGACGAUCAACCUUGAUUACUCUGUGAACUAUCGGAAUGUCUCGUCCUUCAACCUUAAAAACAACUAUUUCACCAGCUCUGAUGGGGUCCUCCCGGAAAUUCGUGAGGAACAGCAGAUCUCCUCUGUGCAACAGAGGAUUGAGCAUCA
B9: chr12:111929536:111929537:-_ENSMUSG00000021270_ENSMUST00000094361|mus_hu|FALSE|FALSE (ssRNA)
RNA: GGGAGUUCUACAGUCCGACGAUCAGCUCAGAACACUUCAAUAACAAGAUUUGGUCUACUUAGGCAUCCGGCUUGACAGCUAAACACUUUAGACCACAAAGUUAACAUCAUGUUACAUACGUCUUACAGUGCACGUUACCCCAACAACAGAGGAUUGAGCAUCA
B10: chr3:176767854:176767855:-_ENSG00000177565_ENST00000430069|hu_hu|hu_hu_hu_mus_False|18_48 (ssRNA)
RNA: GGGAGUUCUACAGUCCGACGAUCGACAUCCUUGUUACUGGGCACGUCCUGCCCUCCUUCCCGUAUGCAGUGUCUAAGCACGAGCUGUGUAGAGCCACUCGUGCUGUUCUCACUGAGAUUCCAUAUUCUUGCCGUGGAGUCUCCCAACAGAGGAUUGAGCAUCA
B11: chr2:32339754:32339755:+_ENSG00000021574_ENST00000315285|hu_hu|motif|central (ssRNA)
RNA: GGGAGUUCUACAGUCCGACGAUCGCCUGAAAGGCCUGCAGAUCCAGUUUUCAUAACUGUUUUUGAACGAGGCAGUGAAUUACGGGUGUGUGUUAAGGGGUCUUUUCUUUUUGGAACAGCUCCACUUUCUGACUGGAGAUGUCCCAACAGAGGAUUGAGCAUCA
B12: chr11:77336104:77336105:-_ENSG00000074201_ENST00000525064|hu_mus|hu_hu_hu_mus_False|48_98 (ssRNA)
RNA: GGGAGUUCUACAGUCCGACGAUCCUCACACAUUGCUGUGAACAUUGCCUCCAAUGCUGACUUAUCACUGGGCACAAAUCGAAAUUCAGUAAUAGGUUCAACAUCAUCAUUGUCUUCCUCAUCUUCAUCAGAGAGAGGUUCUUUCAACAGAGGAUUGAGCAUCA
B13: chr1:39494447:39494448:+_ENSG00000168653_ENST00000372967|hu_mus|hu_hu_hu_mus_False|18_58 (ssRNA)
RNA: GGGAGUUCUACAGUCCGACGAUCGCACCGAGCGGCGUUCUUAUAGGGCUGUUCUGCGCUUAGGAACAUAAAGUGCCGAUCUAUGUUGAUGCCCAGCUUUUUCUGUAUGUCAAGGAAAGGCAUGGCCCUGCAGUGCCCUUGUCACAACAGAGGAUUGAGCAUCA
B14: chr18:65376317:65376318:+_ENSMUSG00000024589_ENSMUST00000163516|mus_hu|motif|central (ssRNA)
RNA: GGGAGUUCUACAGUCCGACGAUCUUUCAUGCCAACAGGAAGCUAACCCUUUUCUAGAAAACGUUCUCCAAGCUCCCGUCCGGAUGCUGUGGCACUUUCUCUGACAUACUGAGAACACUCUGGGGUGGGGGUGUGUGUAUGCAACAACAGAGGAUUGAGCAUCA

These binders were tested against T1, UNK ZnF1-3 (assay: nsRBNS (natural sequence RNA bind-n-seq); RBNS binding buffer (assumed for nsRBNS): 25 mM Tris pH 7.5, 150 mM KCl, 3 mM MgCl2, 0.01% Triton X-100, 500 ug/ml BSA, 20 U/ml SUPERase-In, 4 C; UNK is unkempt and MSI1 is Musashi-1; names of the RNAs are library labels; protein concentration not given here; high values mean tight binding).

| Binder | binding signal |
| --- | --- |
| B1 | 2.45 enrichment R |
| B2 | 2.2 enrichment R |
| B3 | 0.781 enrichment R |
| B4 | 0.464 enrichment R |
| B5 | 1.31 enrichment R |
| B6 | 1.14 enrichment R |
| B7 | 1 enrichment R |
| B8 | 0.859 enrichment R |
| B9 | 0.787 enrichment R |
| B10 | 0.397 enrichment R |
| B11 | 0.777 enrichment R |
| B12 | 0.784 enrichment R |
| B13 | 0.78 enrichment R |
| B14 | 1.03 enrichment R |
